The campaign covered roughly 360,000 compounds. About 11,000 (3.1%) were called active. Inconclusive means that the source gave no clear call. Such entries were picked first, then a sample of the others. The call rests on the fitted dose curve; in most records, active means well fitted inhibition curve with a large enough effect; inconclusive means small, poorly fitted or top-dose-only effect; inactive means no such curve, though single readings can be large or run the other way. Potencies of inconclusive entries are left out as doubtful fits.
What follows are compounds tested against Schistosoma mansoni thioredoxin glutathione reductase (TGR) (UniProt Q962Y6) (assay: qHTS Assay for the Inhibitors of Schistosoma Mansoni Peroxiredoxins). Conditions: purified TGR, DTNB reduction, TNB absorbance 405 nm; activity change, negative = inhibition: at 114 µM (top of the series) unless noted.
How it was run: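 TGR 20 nM + NADPH 100 uM (dispensed conc.), cpd preinc 15 min RT; start with NADPH (500 uM addition) then DTNB (15 mM addition). Kinetic TNB absorbance, 405 nm filter. Four-parameter Hill fit across titration.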
In the case of `O=C1SC(SCc2ccccc2)=N/C1=C\c1ccco1`, the Potency was inconclusive [inhibitor, partial curve].
With `Cc1nnc(SCc2ccc(C(=O)c3ccc(Cl)cc3)o2)n1-c1ccccc1` the Potency was inconclusive [inhibitor, partial curve, poor fit].
In the case of `COc1ccc(NC(=O)Cc2ccc(Cl)cc2)cc1S(=O)(=O)N1CCCCC1`, the “activity change, negative = inhibition” value was inactive: -8.23%.
`COc1ccccc1/C=C/C(=O)NCC(=O)N/N=C/c1ccc(C)o1` was tested, and the Potency was inconclusive [inhibitor, partial curve].
In the case of `CCCc1cc(=O)oc2c3c(c(Cl)cc12)OCN(CCCO)C3`, the Potency was inconclusive [inhibitor, partial curve].
For `COc1ccccc1/C=C/C=N/n1c(-c2ccccn2)n[nH]c1=S`, the “activity change, negative = inhibition” value was inactive: 0.94%.
In the case of `Cc1ccc(CNC(=O)CSc2ccsc2[N+](=O)[O-])cc1`, the Potency was inconclusive [inhibitor, partial curve].
`CC(C)c1nc2oc3c(NCc4cccnc4)ncnc3c2c2c1CCC2` was tested, and the “activity change, negative = inhibition” value was inactive: -11.2%.
In the case of `c1cc2c3c(cccc3c1)NC1(CCC3(CC1)Nc1cccc4cccc(c14)N3)N2`, the Potency was inconclusive [inhibitor, full curve, poor fit].
`CCOC(=O)c1c(C)sc2c1N(C(=O)CCl)c1cc(Cl)ccc1S2` was tested, and the Potency was active: 2.51 µM.
With `O=C(CSc1nnc(C2CC2)n1-c1ccccc1)NCCc1ccccc1` the “activity change, negative = inhibition” value was inactive: 2.73%.
`Cc1ccc(N2C(=O)NC(=O)/C(=C\c3ccc(N4CCOCC4)cc3)C2=O)cc1` was tested, and the Potency was inconclusive [inhibitor, full curve, poor fit].
In the case of `O=C(CCl)Nc1ccccc1C(=O)c1ccccc1`, the Potency was active: 35.5 µM.
For `CCC(C)c1ccccc1NC(=S)NC(=O)c1ccco1` (stereo unspecified), the Potency was inconclusive [inhibitor, full curve, poor fit].
`COC(=O)c1ccccc1NC(=O)Cn1cc(S(=O)(=O)Cc2ccccc2F)c2ccccc21` was tested, and the “activity change, negative = inhibition” value was inactive: -1.29%.
For `O=C(Nc1cc(C(F)(F)F)cc(C(F)(F)F)c1)Nc1cnn(-c2ccc([N+](=O)[O-])cc2)c1C(F)(F)F`, the “activity change, negative = inhibition” value was inactive: -2.16%.
For `N#Cc1c(-c2ccccc2)nc2n(-c3ccccc3)nc(C(=O)Nc3ccccc3)n2c1=O`, the “activity change, negative = inhibition” value was inactive: 3.01%.
For `COC(=O)c1ccccc1S(=O)(=O)N1CCn2cccc2C1C` (stereo unspecified), the Potency was inconclusive [inhibitor, partial curve].
For `O=C(C1CCCO1)N1CCc2ccccc21` (stereo unspecified), the Potency was inconclusive [inhibitor, partial curve].
For `CCCCNC(=S)NNC(=O)C1=NN(c2cc(C)ccc2C)C(=O)CC1`, the “activity change, negative = inhibition” value was inactive: 0.833%.
For `Cc1ccc(S(=O)(=O)c2nc(-c3ccco3)oc2SC(C)c2ccccc2)cc1` (stereo unspecified), the Potency was inconclusive [inhibitor, partial curve].
With `O=C(CN1CCN(c2ccc(F)cc2)CC1)c1ccc2c(c1)OCO2` the Potency was active: 44.7 µM.
For `COc1cccc(CNC(=O)c2ccc(Cn3c(SCc4ccccc4)nc4cccnc43)cc2)c1`, the “activity change, negative = inhibition” value was inactive: -0.646%.
With `C(=C\c1ccccc1)/C=N/Nc1nc2ccccc2s1` the Potency was inconclusive [inhibitor, full curve, poor fit].
With `CC1(C)CC(NC(=S)Nc2ccc([N+](=O)[O-])cc2)CC(C)(C)N1` the Potency was active: 50.1 µM.
`Cc1cc(-c2csc(NC(=O)c3ccc(=O)n(C)n3)n2)c(C)n1CC1CCCO1` (stereo unspecified) was tested, and the Potency was active: 35.5 µM.
`COC(=O)CCCC1=CC2=CC(=O)C(C)(OC(=O)c3cccs3)C(=O)C2=CN1CCc1c[nH]c2ccccc12` (stereo unspecified) was tested, and the Potency was inconclusive [inhibitor, partial curve].
With `O=C(NC(=C(Cl)Cl)S(=O)(=O)c1ccc(Cl)cc1)c1ccccc1` the Potency was active: 3.55 µM.
With `COC(=O)C1=C(C)N(CCc2c[nH]c3ccc(OC)cc23)C(=O)C1` the Potency was inconclusive [inhibitor, partial curve].
For `Cc1ccc(CNC(=O)c2ccc(CSCc3ccc(Cl)cc3)o2)cc1`, the Potency was active: 39.8 µM.
`N#Cc1c(=O)c2nc(NCc3ccccc3)ncc2n2ccccc12` was tested, and the Potency was inconclusive [inhibitor, full curve].
In the case of `CC(=O)c1c(C)nc(C)nc1NC(=O)Cc1ccccc1`, the “activity change, negative = inhibition” value was inactive: -12.1%.
In the case of `Cc1cc(C(=O)Nc2ccc(Cl)cc2)c(C)n1Cc1cccs1`, the Potency was inconclusive [inhibitor, partial curve].
`COc1cc(C2c3c(oc4ccccc4c3=O)C(=O)N2CCN2CCOCC2)cc(OC)c1OC` (stereo unspecified) was tested, and the Potency was inconclusive [inhibitor, partial curve].
With `O=C(NN=C1c2ccccc2-c2ccccc21)c1ccccc1` the Potency was inconclusive [inhibitor, partial curve, poor fit].
For `CC(Sc1nnc(-c2ccc(O)cc2)o1)C(=O)Nc1cccc2ccccc12` (stereo unspecified), the Potency was inconclusive [inhibitor, partial curve, poor fit].
In the case of `Cc1ccccc1CNC(=O)c1ccc(-c2nc(CS(=O)(=O)c3ccccc3)c(C)o2)cc1`, the Potency was inconclusive [inhibitor, partial curve].
In the case of `O=C(O)C(c1ccccc1)N1C(=O)/C(=C\c2ccc(-c3ccc(Br)cc3)o2)SC1=S` (stereo unspecified), the Potency was inconclusive [inhibitor, partial curve].
`COc1cccc(C(=O)CN2CCC(NC(=O)NC3CCCCC3)CC2)c1` was tested, and the Potency was inconclusive [inhibitor, partial curve].
With `C#CCNC(=O)C1=C[C@@H](C2CCCCC2)[C@H](CCCO)[C@@H](OCC)O1` the Potency was active: 39.8 µM.
For `CSC(=NC#N)N1CCN(C(c2ccccc2)c2ccccc2)CC1`, the Potency was inconclusive [inhibitor, partial curve].
For `Cc1cnc(C(=O)OCC(=O)N=c2sccn2Cc2ccccc2Cl)cn1`, the Potency was inconclusive [inhibitor, single point].
For `O=C(NCc1ccco1)c1cccs1`, the Potency was active: 35.5 µM.
In the case of `CN(C)CCCN(C(=O)c1ccc2c(c1)CCCC2)c1nc2c(F)cccc2s1`, the Potency was inconclusive [inhibitor, partial curve].
For `C(=Nc1ccc(Nc2ccccc2)cc1)c1ccc2ccccc2c1`, the Potency was inconclusive [inhibitor, partial curve].
`COc1ccc(OC)c(NC(=O)c2c(NCc3ccc(C)o3)sc3c2CCC(C)C3)c1` (stereo unspecified) was tested, and the Potency was active: 39.8 µM.
In the case of `CN(CP(=O)(O)CCc1ccccc1)S(C)(=O)=O`, the Potency was inconclusive [inhibitor, full curve, poor fit].
With `O=C(O)c1cc(-c2ccco2)nc2cc3ccccc3cc12` the Potency was active: 2.24 µM.
In the case of `O=C(c1ccc(CS(=O)Cc2ccccc2Cl)o1)N1CCN(c2ccccn2)CC1` (stereo unspecified), the Potency was inconclusive [inhibitor, partial curve].
With `CC(C)(C)C(=O)Nc1ccc(/C=C/C(=O)c2ccco2)cc1` the Potency was inconclusive [inhibitor, partial curve].
With `C=CCc1ccc(OCCOCCOc2ccccc2[N+](=O)[O-])c(OC)c1` the “activity change, negative = inhibition” value was inactive: -7%.
In the case of `CN(Cc1ccccc1)C(=O)CCC1CCN(C(=O)CC2=CCCCC2)CC1`, the “activity change, negative = inhibition” value was inactive: 6.27%.
With `COc1cc(/C=C2\SC(c3ccc(C)cc3)=NC2=O)ccc1O` the Potency was inconclusive [inhibitor, partial curve].
With `CCOC(=O)CCCCC(=O)c1[nH]c(=O)[nH]c1CSc1nc(-c2ccccc2)c(C#N)c(=O)[nH]1` the Potency was inconclusive [inhibitor, partial curve].
In the case of `O=c1[nH]c(=O)n(Cc2ccccc2)c(O)c1C=NCCN1CCNCC1`, the Potency was active: 35.5 µM.
For `O=S(=O)(CCNCc1cccs1)c1ccc(Cl)cc1`, the Potency was inconclusive [inhibitor, partial curve].
`OCCCc1nc2n(n1)C(c1cccs1)C=C(c1ccc(Br)cc1)N2` (stereo unspecified) was tested, and the Potency was active: 25.1 µM.
In the case of `COc1cc(/C=C(/C#N)C(=O)NC(C)c2ccccc2)cc(OC)c1O` (stereo unspecified), the Potency was inconclusive [inhibitor, partial curve].
With `CCOC(=O)c1ccc(NC(=O)Nc2ncc(Cl)cc2Cl)cc1` the Potency was active: 39.8 µM.
In the case of `Cc1ccc(NC(=O)NNc2cccc(Cl)n2)cc1`, the “activity change, negative = inhibition” value was inactive: -4.44%.
With `CC(C)NC(=O)CSCc1c(F)cccc1Cl` the Potency was inconclusive [inhibitor, single point].
In the case of `COc1ccc(N2C(=O)CC(N3CCN(c4ccccc4OC)CC3)C2=O)cc1` (stereo unspecified), the Potency was inconclusive [inhibitor, partial curve].
For `O=C(NCCS(=O)(=O)N1CCN(c2ccc(F)cc2)CC1)c1cc(=O)c2ccccc2o1`, the “activity change, negative = inhibition” value was inactive: 2.54%.
In the case of `COc1ccc(C2C=C(c3ccc(Br)cc3)Nc3nc(N4C(=O)CCC4=O)nn32)cc1` (stereo unspecified), the Potency was inconclusive [inhibitor, full curve].
`COc1ccc(S(=O)(=O)NC(CC(=O)O)c2ccco2)cc1` (stereo unspecified) was tested, and the Potency was inconclusive [inhibitor, partial curve].
`CCN(CC)S(=O)(=O)c1ccc(C)c(N=C=S)c1` was tested, and the Potency was active: 39.8 µM.
`COc1ccc(S(=O)(=O)N(CC(=O)NN=C2CCN(C)CC2)c2cc(Cl)ccc2OC)cc1OC` was tested, and the “activity change, negative = inhibition” value was inactive: 1.07%.
For `NC(=O)C1CCN(C(=O)/C=C/c2ccco2)CC1`, the Potency was active: 7.94 µM.
For `Cc1ccc(C2CC(=O)C(C=NCCN3CCN(C(=S)Nc4ccccc4)CC3)=C(O)C2)cc1` (stereo unspecified), the “activity change, negative = inhibition” value was inactive: -4.19%.
`CC(=O)NC1=C(N(C)C2CCS(=O)(=O)C2)C(=O)c2ccccc2C1=O` (stereo unspecified) was tested, and the Potency was inconclusive [inhibitor, partial curve].
For `O=C(CN1C(=O)c2ccccc2C1=O)N1CCN(S(=O)(=O)c2ccccc2)CC1`, the Potency was inconclusive [inhibitor, full curve, poor fit].
Further: nearly all actives have a fitted effect of over 60% in size.
On the % scale 0 is the no-effect control and ±100 the full control effect; potency means the concentration at half of the fitted maximal effect; tags describe the fitted curve by direction and shape.
